Here are results for 3 molecules from patent US20160040149A1, “Compositions Having Dicamba Decarboxylase Activity and Methods of Use” (priority 2013, published 2016).

The assay is described as follows: Saturation mutagenesis of SEQ ID NO:109: dicamba decarboxylation activity of point mutants (CO2 released), fold of backbone (Tables 7, 8, Megatable 1). The settings on record: decarboxylation activity (CO2 released) of point mutant vs unmutated backbone protein; backbone SEQ ID NO: 109.

B1: 67 (protein, listed as Amblyomma maculatum)
chain: MASSFSAAANLKIDLHAHVTPDRWPNLRERYGYGGWLDIKHESDKTAVMSYDDGRFFRRIESNCWNIDERIADMDRTGVTVQALSTTPVLFSYWAKPEDALDFSRLQNDFVASLVNRRPDRFVGMCTVPMQSPQLAAEELKRCVSQLGFRAVIVGSHINEWTLADRALDPFYRTVKELGVSIFVHPWDMPPSTRYNKYWLQWLVGMPAETTAAICEVIFGGLLERFPRLKLCFAHGAGSFPYTVGRIQHGFDVRPDLCAVDNKIPPKGYLGEIYADSLVHNRGSLRLLLDTLGEDRVMLGSDYPYPLGEIDRPGRLIETSGLQNSVKEKLLWKKCCELPRN
In the case of B1, the “Fold Activity” value came out at 1.3 fold.

B2: 65 (protein, listed as Ailuropoda melanoleuca)
chain: MAKIDVHSHILPKEWPDLKKRFGYGGWVQLQHHNKGEAKMMKDGKVFRVVQENCWDPEVRIREMDQTGVTVQALSTVPVMFSYWAKPQDTLDLCQLLNNDLAATVANHPRRFVGLGTLPMQAPELAVKEMERCVKELGFPGVQIGSHINEWDLNAKELFPVYAVAEKLNCSLFVHPWDMQMDGRMAKYWLPWLVGMPAETTTAICSMIMGGVFEKFPKLKVCFAHGGGAFPFTVGRISHGFNMRPDLCAQDNPINPKKYLGSFYTDSLVHDPLALKLLTDVIGKDKVILGTDYPFPLGELEPGKLIESMEEFEEETKDKLKAGNALAFLGLERKQFE
B2: the “Fold Activity” value turned out to be 1.7 fold.

B3: 66 (protein, listed as Amphimedon queenslandica)
chain: MASGIKVDIHNHILPERWPDLKERYGYGGWIQLHHHCQGKARMLKDGQLFRVVDENCWSPEARIKDMDNTGVTVQALSTVPVMFSYWAKPEDTLDLCKILNNDLAQTVAKFPKRFVGLGTLPMQAPELAVQELKRCIKELGFPGVQIGSHVNEWNLDATELQCVFAAAEELNAAVFVHPWDMETGGRMSKYWLPWLVGMPAETATAICSVLFGGVLERHPNLKICFAHGGGSFPYTIGRIEHGFNVRPDLCATENSVNPRSYIGKVYTDSLVHDQKALKFLVDIIGEDRVVLGSDYPFPLGEHFPGKLIESIEEWDTSLKDKLLSKNAFEFLGLDPSQYET
Regarding B3, the “Fold Activity” value was found to be 1.6 fold.
